# Test results from patent publication US20110166063A1 (priority 2008, published 2011).
# Assay: PEG release rate and stability, biphalin and its conjugates
# Assay type: physicochemical
substance,measurement,setting,value
(C2-20K)2-biphalin [Di-C2-PEG2-FMOC-NHS-20K-biphalin],PEG Release rate,"after 4 h at 37° C. in PBS, pH 7.2",50% after 4 h
(CAC-20K)2-biphalin [Di-CAC-PEG2-FMOC-NHS-20K-biphalin],PEG Release rate,"after 23 h at 37° C. in PBS, pH 7.2",15% after 23 h
(SBC-30K)2-biphalin [Di-mPEG-SBC-30K-biphalin],PEG Release rate,"after 50 min at 37° C. in 200 mM Na-phosphate, pH 7.4",55% after 50 min
